In all, about 150,000 compounds went through this assay and about 540 (0.36%) showed an effect of 50% or more. Some of the results follow.
tested on: Plasmodium falciparum; experiment: Primary screen in NF54 nanoGlo assay, in single point, at 2uM, 72h; a lower Z score goes with more inhibition; type: functional, Erythrocyte; conditions: timepoint 72 hour

Row | SMILES | % Inhibition | Z score
1 | CC1(C)COCCN1C(=O)c1cccc2[nH]ccc12 | 2% | -0.24
2 | COc1ccc(OC)c(C(N2CCOCC2)N2CCOCC2)c1 | -2% | 0.43
3 | COc1cccc(NC(=O)c2cn(Cc3noc(C)n3)nn2)c1 | -1% | 0.29
4 | CCN(CC)Cc1cnc2c(C(=O)N3C[C@@H](C)O[C@@H](C)C3)cnn2c1 | -16% | 2.86
5 | Cc1ccc2c(c1)N(C(=O)c1ccc(OC(F)F)cc1)CCCO2 | 0% | -0.06
6 | Cn1ncc2ccc(C(=O)NC3CC3)cc21 | -19% | 2.91
7 | C[C@@H](CO)Nc1ncc(Cl)cc1Cl | -9% | 1.29
8 | COCCNC(=O)CCC(=O)NC1CCCC(C)C1C (stereo not given) | -9% | 0.93
9 | O=C(Nc1cccnc1)c1ccc(-c2ccc(Cl)c(Cl)c2)o1 | 64% | -16.5
10 | Cc1c[nH]c([C@H](C)NC(=O)c2n[nH]c(=O)c3ccccc23)n1 | -2% | 0.31
11 | COCC(=O)Nc1cc(C(=O)N2C[C@@H](C)O[C@@H](C)C2)c2c(c1)ncn2Cc1ccc(F)cc1 | 14% | -1.76
12 | CC(=O)N1CCCN(c2nc(N)ncc2C)CC1 | -3% | 0.68
13 | CC(=O)c1csc(NC(=O)[C@@]2(C)CC2(Cl)Cl)n1 | 5% | -0.81
14 | COC[C@H]1CCCN(S(=O)(=O)N2CCCN(C3CCCCC3)CC2)C1 | -2% | 0.38
15 | FC(F)(F)c1nnc(NCc2ccc(Cn3cccn3)cc2)s1 | -2% | 0.35
16 | COC(=O)N1CCc2ccc(F)cc2[C@@H]1C(=O)Nc1ccccc1C | -3% | 0.53
17 | CCCNC(=O)CCC(=O)NC(c1cccs1)c1cccs1 | -1% | 0.2
18 | C[C@H]1CN(S(=O)(=O)c2ccc(NC(=O)c3cc(-c4ccccc4)on3)cc2)c2ccccc2O1 | 0% | -0.03
19 | O=C1CN(C2CC2)Cc2cccc(c2)Oc2cccc(c2)CO[C@H]2CN(C(=O)CCn3cncn3)C[C@@H]2N1 | -7% | 1.29
20 | CCc1cccc(OC2CN(c3cc(C(=O)NC4CC4)ccn3)C2)c1 | -10% | 2.03
21 | COc1ccc(CN2C[C@H]3CC[C@@H](C2)N(CC=C(C)C)C3)cc1CN(C)C | -17% | 1.87
22 | Cc1ccc(CN(CCO)C(=O)c2cc3cccn3cn2)o1 | -2% | 0.33
23 | CCn1ncc(-c2ccccc2OCc2ccccc2)c1C(=O)O | 1% | -0.21
24 | CCOc1ccc(-c2c[nH]c([C@H]3CCOC3)n2)cc1OCC | -16% | 2.2
25 | Cc1ccc(CC(=O)N(CCc2ccc(F)cc2)C2CCCC2)cn1 | -8% | 1.32
26 | Cc1ccc(CN2CCN(Cc3ccccn3)[C@H]3CS(=O)(=O)C[C@H]32)cc1 | -9% | 0.84
27 | Cc1cc(C(=O)NCCCN2CCCC2=O)c(-c2ccccc2)o1 | -7% | 0.76
28 | Cc1cc(C(=O)NC[C@H]2CCCN(c3cc(O)ncn3)C2)cc(C)n1 | 6% | -0.64

Row | SMILES | % Inhibition | Z score
29 | CCc1cnc(C)nc1N1CCC(N[C@@H](C)c2n[nH]c(C)n2)CC1 | -3% | 0.44
30 | Cc1ccc(C)c([C@@H]2CCCN2C(=O)CCc2cncn2C)c1 | -7% | 0.85
31 | Cc1cncc(C(=O)NC[C@@H](CO)Cc2ccc(Cl)cc2)c1 | -7% | 0.93
32 | Cn1cnc2c(C(=O)NCc3cccc(F)c3)nn(-c3ccc(Cl)cc3)c2c1=O | -3% | 0.32
33 | Nc1c(-c2ccccn2)nsc1C(=O)N1CCCCC1 | -15% | 2.61
34 | N#CCCn1cc(C(=O)O)c(-c2cccc3ccccc23)n1 | -4% | 0.61
35 | Cc1ncsc1CNC(=O)NCCc1cc2ccccc2o1 | -6% | 1.09
36 | CO[C@H]1[C@@H]2CC[C@H]1CN(C(=O)c1cc(C)[nH]c(=O)c1)C2 | -14% | 1.51
37 | O=C(c1cccs1)N1CCc2ncnc(N3CCC(O)CC3)c2CC1 | 1% | -0.1
38 | COc1ccccc1[C@@H](O)CNC(=O)Nc1csnc1OC | 14% | -1.72
39 | CCn1cc(C)c(C(=O)O)c1CC(=O)N1CCc2ccccc21 | -1% | 0.19
40 | Cc1nc(C)c(CC(=O)NCc2cnc3cnccn23)s1 | -17% | 1.79
41 | Nc1n[nH]c(S(=O)(=O)CCCc2ccccc2)n1 | -5% | 0.43
42 | CCN1CC[C@H](NC(=O)c2cc(OC)ccn2)C1 | -7% | 0.95
43 | C[C@H](O)CCN(C)c1ccc(Br)cc1C#N | -4% | 0.61
44 | Cc1cccc(N(CCC(N)=O)C(=O)[C@H]2CCn3c(cnc3C(F)(F)F)C2)c1 | -7% | 1.17
45 | c1snnc1Cn1c(-c2csnn2)nc2cc3c(cc21)OCCCO3 | -6% | 1.26
46 | CN(C)C(=O)COc1ccc(C#N)cc1 | -9% | 1.13
47 | Cc1nnc(CN2[C@H]3C[C@H]4CCC3(CS2(=O)=O)C4(C)C)s1 | 5% | -0.52
48 | O=C(Cn1ncn2c(cc3cc(F)ccc32)c1=O)NC[C@H]1CCCO1 | -7% | 0.92
49 | NC(=O)[C@@H]1CN(Cc2cc(F)ccc2F)C[C@H]1COc1ccncc1 | 0% | -0.03
50 | O=C(O)c1ccc(C(=O)N2CC(c3ccccc3)C3CCCC32)c(F)c1 (stereo not given) | -7% | 1.02
51 | CCOc1ccccc1CNC(=O)CN1C(=O)C(C)(C)c2cc(C)ccc21 | 0% | -0.05
52 | CCN(Cc1nccn1C)C(=O)c1ccc(-c2cc(OC)nc(OC)n2)cc1 | -3% | 0.67
53 | CC(=O)N1CC(C(=O)N2CCC3(CCC3)CC2)C1 | 17% | -1.99
54 | CC(=O)[C@@H]1C[C@H](C(=O)NCc2ccc(Oc3cccc(F)c3)nc2)C1(C)C | -12% | 1.64
55 | CCS(=O)(=O)CC(C)N(C)C(=O)NC1CCCC(C)C1 (stereo not given) | -3% | 0.4
